“And” between values parts separate entries of the source, which are not always exact repeats. Equal values may be shown once. Among all 16,000 compounds or so, about 40 (0.2%) were called active. Not shown: some 1% with an inconclusive outcome. Calls follow the shape of the dose curve; as a rule, active = well fitted activation curve with a large enough effect; inconclusive = small, poorly fitted or top-dose-only effect, or another doubt; inactive = no such curve, though single readings can be large or run the other way. The list shows a part of the results.
What follows are compounds tested against Rap guanine nucleotide exchange factor 4 (Homo sapiens) (UniProt Q8WZA2) (assay: Validation qHTS for agonist of cAMP-regulated guanine nucleotide exchange factor 4 (EPAC2)). Conditions: EPAC2 Rap1B BODIPY-GDP exchange, fluorescence; activation: active compounds read high.
Sequence of UniProt Q8WZA2 (Q8WZA2 whole entry, looked up): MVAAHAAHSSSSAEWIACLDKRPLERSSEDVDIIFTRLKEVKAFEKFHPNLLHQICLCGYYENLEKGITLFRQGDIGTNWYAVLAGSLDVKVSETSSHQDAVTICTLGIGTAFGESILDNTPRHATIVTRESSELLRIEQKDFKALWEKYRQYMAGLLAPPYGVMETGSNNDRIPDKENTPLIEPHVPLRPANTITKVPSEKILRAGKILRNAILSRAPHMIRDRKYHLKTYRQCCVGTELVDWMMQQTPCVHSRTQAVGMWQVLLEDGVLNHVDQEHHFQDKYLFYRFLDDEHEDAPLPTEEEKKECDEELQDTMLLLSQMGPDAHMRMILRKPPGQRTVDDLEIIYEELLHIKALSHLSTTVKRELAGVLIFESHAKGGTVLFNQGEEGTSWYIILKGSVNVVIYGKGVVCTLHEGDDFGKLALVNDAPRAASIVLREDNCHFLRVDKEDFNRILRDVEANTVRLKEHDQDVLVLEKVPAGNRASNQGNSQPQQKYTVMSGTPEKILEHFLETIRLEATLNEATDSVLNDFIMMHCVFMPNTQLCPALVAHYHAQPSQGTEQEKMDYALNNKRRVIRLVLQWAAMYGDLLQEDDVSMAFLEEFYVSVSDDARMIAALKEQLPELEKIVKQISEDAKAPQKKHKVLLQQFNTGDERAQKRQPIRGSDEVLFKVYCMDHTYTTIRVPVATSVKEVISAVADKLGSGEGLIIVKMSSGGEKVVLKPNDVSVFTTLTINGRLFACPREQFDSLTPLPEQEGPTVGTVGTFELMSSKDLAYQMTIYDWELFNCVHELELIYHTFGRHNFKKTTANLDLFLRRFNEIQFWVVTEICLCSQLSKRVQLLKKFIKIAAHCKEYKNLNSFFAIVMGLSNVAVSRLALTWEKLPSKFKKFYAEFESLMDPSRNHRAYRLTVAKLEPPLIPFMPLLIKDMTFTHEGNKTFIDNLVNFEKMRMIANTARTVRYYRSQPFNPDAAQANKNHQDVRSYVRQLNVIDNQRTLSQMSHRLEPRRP
Method in brief: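 Fluorescent exchange assay: 100 nM EPAC2 with 250 nM RAP1B-BODIPY-GDP and 50 uM GDP; compound added, 5 min at room temperature, then read (ex 480/em 540 nm) every 5 min for 30 min. Normalized to 6.5 mM cAMP agonist control.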
With `CCOCCOC(C)=O` the activation was inactive: 9.82%.
With `CC[N+](CC)(CC)CC` the activation was inactive: -14.7% and inactive: -33.8%.
`CCC(COC(=O)c1cc(OC)c(OC)c(OC)c1)(c1ccccc1)N(C)C` (stereo not drawn) was tested, and the activation was inactive: -3.04%.
In the case of `C[C@@H](CO)NC(=O)[C@@H]1C=C2c3cccc4[nH]cc(c34)C[C@H]2N(C)C1`, the activation is reported as inactive: 12.8%.
`Clc1ccc(C(OCCN2CCCCC2)c2ccccc2)cc1` (stereo not drawn) was tested, and the activation was inactive: -20.8% and inactive: -5.53%.
For `COC(=O)N1CCN(C(=O)Cc2ccc(Cl)c(Cl)c2)[C@H](CN2CCCC2)C1`, the activation was inactive: 7.41%.
For `CCCSP(=O)(OCC)SCCC`, the activation was inactive: 7.21%.
For `CN1CCN(C(=O)OC2c3nccnc3C(=O)N2c2ccc(Cl)cn2)CC1` (stereo not drawn), the activation was inactive: -16.6% and inactive: 14.3%.
For `NCCc1c[nH]c2ccccc12`, the activation was inactive: -13.5% and inactive: -7.12% and inactive: -9.68%.
`COc1ccc2c(CCN)c[nH]c2c1` was tested, and the activation was inactive: -0.0623%.
`CN1C2CCC1CC(OC(c1ccccc1)c1ccccc1N)C2` (stereo not drawn) was tested, and the activation was inactive: -9.4% and inactive: -12% and inactive: -21.8%.
In the case of `CCC[C@@H]1CC2=CC(=O)CC[C@]2(C)[C@@H]2CC[C@@]3(C)[C@H](CC[C@]3(O)CCC(=O)O)[C@H]12`, the activation is reported as inactive: -9.02%.
In the case of `CCO/N=C(\CC)C1=C(O)CC(c2c(C)cc(C)cc2C)CC1=O` (stereo not drawn), the activation is reported as inactive: -17.8%.
For `C=C1[C@@H](C)[C@H]2[C@H](Cc3ccccc3)NC(=O)[C@]23OC(=O)/C=C/[C@H](O)CCC[C@@H](C)C/C=C/[C@H]3[C@@H]1O`, the activation was inactive: -7.65%.
`Nc1ccccc1` was tested, and the activation was inactive: 14.7%.
`CCOC(=O)[C@]12Cc3cc(OC)ccc3[C@H]1N(Cc1ccccc1)C(=O)c1ccccc12` was tested, and the activation was inactive: -21.8%.
For `CCOC(OCC)P(=O)(O)CCCN`, the activation was inactive: -13.4% and inactive: -8.82%.
With `ClC1=C(Cl)C2(Cl)C3C4C=CC(C4)C3C1(Cl)C2(Cl)Cl` (stereo not drawn) the activation was inactive: -38.8%.
In the case of `c1cncc([C@H]2CCCCN2)c1`, the activation is reported as inactive: 3.75%.
`CC[N+]1(CCOC(=O)C(O)(c2ccccc2)c2ccccc2)CCCCC1` was tested, and the activation was inactive: -12.7%.
With `C/C=C(/C)C(=O)OC1CC[C@]2(C)C3CCC4[C@]5(O)CC(O)[C@]6(O)C(CN7CC(C)CCC7[C@]6(C)O)[C@]5(O)C[C@@]42O[C@]13O` (stereo partly drawn) the activation was inactive: -12%.
In the case of `Cc1c(Cl)c(=O)oc2cc(OP(=O)(OCCCl)OCCCl)ccc12`, the activation is reported as inactive: 1.63%.
In the case of `COc1ccc(C(=O)O[C@H]2CC[C@@]3(C)C4CCC5[C@]6(O)C[C@H](O)[C@@]7(O)C(CN8C[C@@H](C)CC[C@H]8[C@@]7(C)O)[C@]6(O)C[C@@]53O[C@@]42O)cc1OC` (stereo partly drawn), the activation is reported as inactive: -1.27% and inactive: 4.24%.
For `COC(=O)COc1cc(Cl)c(Cl)cc1Cl`, the activation was inactive: -5.32%.
`CN(C)C1C(=O)C(C(N)=O)=C(O)[C@@]2(O)C(=O)C3=C(O)c4c(O)cccc4[C@](C)(O)C3C(O)C12` (stereo partly drawn) was tested, and the activation was inactive: -8.93%.
`C[N+]1(C)[C@@H]2CC[C@H]1CC(OC(=O)C(CO)c1ccccc1)C2` (stereo partly drawn) was tested, and the activation was inactive: 4.62% and inactive: -1.37%.
With `CC(=O)OCC1=C(C(=O)O)N2C(=O)[C@@H](NC(=O)CCC[C@@H](N)C(=O)O)[C@H]2SC1` the activation was inactive: -31%.
In the case of `CC1(C)S[C@@H]2[C@H](N)C(=O)N2[C@H]1C(=O)O`, the activation is reported as inactive: -17.6%.
With `COc1c2c(cc3c1OCO3)CC[N+](C)=C2` the activation was inactive: -0.261% and inactive: 5.7%.
For `CN1C(=O)COc2c(C(=O)NC3CN4CCC3CC4)cc(Cl)cc21` (stereo not drawn), the activation was inactive: -3.72%.
`CCN(CC)CCO[C@H]1CC[C@@]2(C)C(=CC[C@@H]3[C@@H]2CC[C@]2(C)C(=O)CC[C@@H]32)C1` was tested, and the activation was inactive: -8.37%.
For `Cc1ccc(S(=O)(=O)N[C@@H](CCCCN)C(=O)CCl)cc1`, the activation was inactive: -5.83% and inactive: -71.6%.
In the case of `CCCN1CCC[C@@H](c2cccc(O)c2)C1`, the activation is reported as inactive: -16.6%.
For `C/C(=C\[C@@H](N)C(=O)O)CP(=O)(O)O`, the activation was inactive: 15.9%.
For `CC1/C=C/C=C/CC/C=C/C=C/C=C/C=C/C(OC2OC(C)C(O)C(N)C2O)CC2O[C@](O)(CC(O)C(O)CCC(O)CC(O)CC(O)CC(=O)OC(C)C(C)C1O)CC(O)C2C(=O)O` (stereo partly drawn), the activation was inactive: 4.57%.
For `O=C1CN=C(c2ccccc2)c2cc([N+](=O)[O-])ccc2N1`, the activation was inactive: -24.6%.
`CC[C@]12CCCN3CCC4(c5ccccc5NC4C(C(=O)O)C1)C32` (stereo partly drawn) was tested, and the activation was inactive: -27.5%.
For `C[C@]12CCC(=O)C=C1CCc1ccc(O)cc12`, the activation was inactive: -6.53%.
% is scaled to controls: 0 for no effect and ±100 for the full control effect.
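Also: exchange makes BODIPY-GDP fluorescence drop when released from Rap1B; series mostly up to about 150 µM.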
